No constants are given. Whether binding was seen depends on the method and setting. In cells and extracts the contact can be indirect. Some binding calls cover weakened binding; strength is not graded here.

By UniProt entry, the sequences of proteins in these tests, tags left out.
UniProt Q15327: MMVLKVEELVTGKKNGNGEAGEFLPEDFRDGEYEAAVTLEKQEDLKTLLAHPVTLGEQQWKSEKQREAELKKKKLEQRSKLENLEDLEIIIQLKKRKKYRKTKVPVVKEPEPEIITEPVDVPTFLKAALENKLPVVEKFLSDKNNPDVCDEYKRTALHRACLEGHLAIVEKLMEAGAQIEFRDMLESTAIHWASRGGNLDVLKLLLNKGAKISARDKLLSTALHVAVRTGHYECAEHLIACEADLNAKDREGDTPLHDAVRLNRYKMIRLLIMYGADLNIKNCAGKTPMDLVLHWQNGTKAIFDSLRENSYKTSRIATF

In experiment [1] the target is ANKRD1 fused with a V5-tag, expressed in HEK293 cells (human) (UniProt Q15327). Kind of experiment: co-IP; V5-tag magnetic beads, 250 ug lysate of ANKRD1-overexpressing HEK293 cells digested with DNase I; 50 mM Tris-HCl pH 7.4, 150 mM NaCl, 1 mM EDTA, 1% NP-40, 1% Na-deoxycholate, 0.05% SDS; 4 °C, 12 hours; immunoblot for ANKRD1, JUN, FOSL2. (In western blotting, separated proteins are transferred to a membrane and probed.)

Experiment [2] has as its target ANKRD1 fused with a V5-tag, expressed in human dermal fibroblasts (human) (UniProt Q15327). Kind of experiment: proximity ligation; Duolink PLA on fixed, permeabilised cells with anti-ANKRD1, anti-JUN and anti-FOSL2 (FRA2) antibodies; HDFs infected with ANKRD1OE or CTRL vector, CAFs and matched HDFs, CAFs with shANKRD1 or ANKRD1-FANA ASO; puncta per cell.
Experiment [3] deals with ANKRD1, endogenous in cancer-associated fibroblasts (human (endogenous in CAFs)) (UniProt Q15327). The experiment is described as above.
Experiment [4] has as its target T1, c-JUN, endogenous in human dermal fibroblasts and cancer-associated fibroblasts (human (endogenous in HDFs and CAFs)), P05412.
T1 chain: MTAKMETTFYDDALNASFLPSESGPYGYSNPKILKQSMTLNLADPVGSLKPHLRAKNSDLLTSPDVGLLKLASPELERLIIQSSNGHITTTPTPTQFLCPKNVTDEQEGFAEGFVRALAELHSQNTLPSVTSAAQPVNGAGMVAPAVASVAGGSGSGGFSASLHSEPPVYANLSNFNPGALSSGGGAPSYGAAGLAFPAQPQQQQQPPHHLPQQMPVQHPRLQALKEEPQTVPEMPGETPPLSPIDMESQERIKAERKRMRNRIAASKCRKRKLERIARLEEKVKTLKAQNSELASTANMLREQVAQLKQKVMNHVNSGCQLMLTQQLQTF
The experiment is described as above. The settings on record: remark: other sources report otherwise.

B1: FOSL2, endogenous in HEK293 cells (protein, UniProt P15408 1-326)
chain: MYQDYPGNFDTSSRGSSGSPAHAESYSSGGGGQQKFRVDMPGSGSAFIPTINAITTSQDLQWMVQPTVITSMSNPYPRSHPYSPLPGLASVPGHMALPRPGVIKTIGTTVGRRRRDEQLSPEEEEKRRIRRERNKLAAAKCRNRRRELTEKLQAETEELEEEKSGLQKEIAELQKEKEKLEFMLVAHGPVCKISPEERRSPPAPGLQPMRSGGGSVGAVVVKQEPLEEDSPSSSSAGLDKAQRSVIKPISIAGGFYGEEPLHTPIVVTSTPAVTPGTSNLVFTYPSVLEQESPASPSESCSKAHRRSSSSGDQSSDSLNSPTLLAL
For B1, in experiment [1], the binding result is reported as “binds”.

B2: FOSL2, endogenous in human dermal fibroblasts and cancer-associated fibroblasts (protein, UniProt P15408 1-326)
chain: MYQDYPGNFDTSSRGSSGSPAHAESYSSGGGGQQKFRVDMPGSGSAFIPTINAITTSQDLQWMVQPTVITSMSNPYPRSHPYSPLPGLASVPGHMALPRPGVIKTIGTTVGRRRRDEQLSPEEEEKRRIRRERNKLAAAKCRNRRRELTEKLQAETEELEEEKSGLQKEIAELQKEKEKLEFMLVAHGPVCKISPEERRSPPAPGLQPMRSGGGSVGAVVVKQEPLEEDSPSSSSAGLDKAQRSVIKPISIAGGFYGEEPLHTPIVVTSTPAVTPGTSNLVFTYPSVLEQESPASPSESCSKAHRRSSSSGDQSSDSLNSPTLLAL
As for B2, the binding entry in experiment [2] and in experiment [3] was “binds” throughout.

B3: FOSL2, endogenous in human dermal fibroblasts and cancer-associated fibroblasts, P15408 1-326 (protein)
chain: MYQDYPGNFDTSSRGSSGSPAHAESYSSGGGGQQKFRVDMPGSGSAFIPTINAITTSQDLQWMVQPTVITSMSNPYPRSHPYSPLPGLASVPGHMALPRPGVIKTIGTTVGRRRRDEQLSPEEEEKRRIRRERNKLAAAKCRNRRRELTEKLQAETEELEEEKSGLQKEIAELQKEKEKLEFMLVAHGPVCKISPEERRSPPAPGLQPMRSGGGSVGAVVVKQEPLEEDSPSSSSAGLDKAQRSVIKPISIAGGFYGEEPLHTPIVVTSTPAVTPGTSNLVFTYPSVLEQESPASPSESCSKAHRRSSSSGDQSSDSLNSPTLLAL
B3: in experiment [4], the binding result is recorded as “binds”.

Values taken from PMC10838290.
